According to PubChem BioAssay AID1345083 (National Center for Advancing Translational Sciences (NCATS), 2018):
About 6,200 (6.6%) of roughly 94,000 compounds were called active. The inconclusive results got no clear call from the source; some entries with a clear call stand among them for comparison. The call rests on the fitted dose curve; in most records, active means well fitted inhibition curve with a large enough effect; inconclusive means small, poorly fitted or top-dose-only effect; inactive means flat fitted curve, though single readings scatter. A potency beside an inconclusive call is a rough fit, not a confirmed value.

Assay: Cytotoxic Profiling in HEK 293 Cell Line of Diverse Libraries Using Quantitative High-Throughput Screening; further: nearly all actives have a fitted effect of over 60% in size
Details: HEK 293 viability, ATP luminescence (CellTiter-Glo), 48-72 h; series mostly up to 115 µM
How it was run: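 Cells seeded first (HEK 293, 250 cells/well), then compound added by pintool. Incubation ran 48 or 72 hr at 37 degree Celsius. CellTiter-Glo was added and luminescence imaged after 10 min at room temperature.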
Potency means the concentration at half of the fitted maximal effect; tags describe the fitted curve by direction and shape.

Structure (SMILES) | Potency
CCn1c(CN2CCCN(c3ncccn3)CC2)nnc1C1CC(N)C1 (stereo unspecified) | inactive
CCN1c2cc(C(=O)Nc3ccc(C(=O)OC)cc3)ccc2C(=O)N2CCCC21 (stereo unspecified) | inconclusive: 10 µM [inhibitor, full curve, poor fit]
CNC(=O)c1cccc(-c2cnc(Nc3cccc(F)c3)c3c2CCO3)c1 | inconclusive: 28.2 µM [inhibitor, partial curve, poor fit]
CCCNC(=O)N1CCCC(c2nc(C3CCOCC3)no2)C1 (stereo unspecified) | inactive
O=C(NCCc1noc(-c2ccccc2)n1)c1ccccc1 | inconclusive: 79.4 µM [inhibitor, single point]
COc1ccc(-c2cc(N3CCCC(NC(=O)c4cccn4C)C3)n[nH]2)cc1 (stereo unspecified) | inconclusive: 50.1 µM [inhibitor, partial curve, poor fit]
CC(C(=O)N1CCCN(c2cc(-c3ccc(Cl)cc3)[nH]n2)CC1)c1ccccc1 (stereo unspecified) | active: 39.8 µM
Cc1cc(C)n(Cc2ccc(C(=O)NCC3CCCCC(=O)N3)o2)n1 (stereo unspecified) | inactive
CN(C1CCCc2ccccc21)S(=O)(=O)c1cccc(C(F)(F)F)c1 (stereo unspecified) | inconclusive: 50.1 µM [inhibitor, partial curve, poor fit]
COc1cccc(C(=O)N2CCN(C(=O)c3cccc(-c4ccccc4OC)c3)CC2)c1 | inconclusive: 50.1 µM [inhibitor, partial curve, poor fit]
COc1ccc(C(=O)NC(C(=O)NC2CC2)C2CCN(C(C)=O)CC2)cc1 (stereo unspecified) | inconclusive: 25.1 µM [inhibitor, full curve, poor fit]
Cc1nc(CN2Cc3nc(N(C)c4ccccc4)ccc3OCC2=O)cs1 | inconclusive: 70.8 µM [inhibitor, partial curve, poor fit]
CC(C)NC(=O)N[C@H]1C[C@@H](Cc2cc(CN3CCN(c4ccccc4)CC3)on2)C1(C)C | inconclusive: 22.4 µM [inhibitor, full curve]
COCCNC(=O)CCc1c(C)nn(-c2ccc(F)cc2)c1Oc1ccccc1C | inconclusive: 89.1 µM [inhibitor, single point]
CCOC(=O)C1(Cc2ccc(F)cc2F)CCCN(S(=O)(=O)c2ccsc2)C1 (stereo unspecified) | inconclusive: 79.4 µM [inhibitor, partial curve]
Cc1ccc(CN2CC[C@@](C)(O)[C@H](N3CCCC3)C2)s1 | inconclusive: 89.1 µM [inhibitor, single point]
CCn1cc(-c2ccncc2)cc1C(=O)NCc1cccc(OC)c1 | inconclusive: 89.1 µM [inhibitor, single point]
COc1ccc(NC(=O)[C@@H]2C[C@@H](c3ccc(F)cc3)N([S+](=O)([O-])c3ccccc3)C2)cn1 | inconclusive: 79.4 µM [inhibitor, partial curve, poor fit]
O=C(CCc1ccccc1)C(=O)N1CCc2[nH]nc(-c3ccccc3F)c2C1 | inconclusive: 89.1 µM [inhibitor, single point]
COc1ccccc1-c1ccc2ncc(Nc3ccccc3)n2n1 | inconclusive: 79.4 µM [inhibitor, partial curve, poor fit]
COc1cc(Cl)c(C)cc1NC(=O)Cn1cccc1-c1nc(-c2ccc(F)cc2)no1 | inactive

Structure (SMILES) | Potency
Cc1cccc(C)c1NC(=O)Cn1ccn2nc3c(c2c1=O)CCCCC3 | inconclusive: 89.1 µM [inhibitor, single point]
O=C(NC[C@H]1O[C@@H]2C[C@@H](CC(=O)N3CCOCC3)O[C@@H]2[C@@H]1O)Nc1cccs1 | inactive
O=C(c1ccccc1F)N1CCCC2(C1)NC(=O)N(Cc1cccc(Cl)c1)C2=O (stereo unspecified) | inconclusive: 56.2 µM [inhibitor, partial curve, poor fit]
Cc1cc(C)cc(-c2ccc(CN3CCCC3C(=O)NC3CC3)cc2)c1 (stereo unspecified) | active: 50.1 µM
Cc1cc(C)cc(C(=O)NC2CCN(c3cc(-c4ccccc4)[nH]n3)C2)c1 (stereo unspecified) | inconclusive: 89.1 µM [inhibitor, single point]
Cc1ccc(-c2nnc(C3CN(C(=O)c4ccsc4)CC34CCOCC4)o2)cc1 (stereo unspecified) | inactive
NC(=O)c1ccc(-c2nc3c([nH]2)CN(c2ncnc4ccsc24)CC3)cc1 | active: 31.6 µM
S=C(NC1CCCCC1)N[C@H]1CO[C@H]2[C@@H]1OC[C@@H]2n1nnnc1Oc1cccc(N2CCOCC2)c1 | inconclusive: 50.1 µM [inhibitor, partial curve, poor fit]
CCCn1nccc1S(=O)(=O)N1CCc2nc(-c3ccccc3)[nH]c2C1 | inconclusive: 79.4 µM [inhibitor, partial curve]
O=C(c1ccc2oc(-c3ccncc3Cl)nc2c1)N1CCCCC1 | inconclusive: 100 µM [inhibitor, partial curve, poor fit]
COc1ccc(CN2CCC3(CC2)CC(C(C)C)=NO3)cc1 | inconclusive: 112 µM [inhibitor, partial curve, poor fit]
COC(=O)C1=C(C)N=C2SC=C(CC(=O)N3CCCC3)N2C1c1ccccc1Cl (stereo unspecified) | inconclusive: 44.7 µM [inhibitor, partial curve, poor fit]
COc1ccc(NC(=O)Cc2c[nH]c3ncc(-c4cnn(C)c4)cc23)cn1 | inactive
COc1ccc(NC(=O)NC[C@H]2O[C@H](Cc3cc(-c4cccc(O)c4)on3)CC[C@@H]2O)cc1 | inactive
COc1ccc(CCNC(=O)c2nc3cccnc3n(C3CC3)c2=O)cc1 | inactive
O=C(NC[C@H]1O[C@@H](CO)[C@@H](O)[C@H]1N1CCOCC1)Nc1ccc(OC(F)(F)F)cc1 | inactive
Cc1cn2nc(C(=O)Nc3ccc(OC(F)(F)F)cc3)cc2c(N2CCSCC2)n1 | inconclusive: 39.8 µM [inhibitor, full curve]
COc1ccccc1Nc1ccnc(N2CCCC(C(=O)NCc3cccc(Cl)c3)C2)n1 (stereo unspecified) | inconclusive: 12.6 µM [inhibitor, full curve, poor fit]
CN1CC(=O)N2CCN(Cc3csc(-c4ccccc4)n3)CC2C1=O (stereo unspecified) | inconclusive: 28.2 µM [inhibitor, full curve, poor fit]
Clc1ccccc1C1Cn2cnc(-c3nc(-c4cccnc4)no3)c2CO1 (stereo unspecified) | inconclusive: 50.1 µM [inhibitor, partial curve, poor fit]
O=C(NCCc1ccccc1)c1nc2sccn2c1-c1ccc(C(F)(F)F)cc1 | inconclusive: 28.2 µM [inhibitor, full curve, poor fit]

Structure (SMILES) | Potency
CC(=O)NCc1nnc2n1C(C(=O)NCC1CCCCC1)CC2 (stereo unspecified) | inactive
O=C(CN1CCCCC1)NC1CC(=O)N(Cc2cccc3ccccc23)C1 (stereo unspecified) | inactive
CC(C)=CCn1c(-c2ccc(F)cc2)cn2cc(C(=O)N(C)CC(C)O)nc2c1=O (stereo unspecified) | inconclusive: 79.4 µM [inhibitor, partial curve, poor fit]
COc1ccc(NC(=O)N2CCC(c3noc(-c4cccnc4)n3)C2)cc1 (stereo unspecified) | inconclusive: 89.1 µM [inhibitor, partial curve, poor fit]
COc1ccc(C(C)NC(=O)c2ccc(-c3ccc(N4CCSCC4)nc3)cc2)cc1 (stereo unspecified) | inconclusive: 8.91 µM [inhibitor, full curve, poor fit]
COc1ccc(C(=O)N2CCCCCCNC(=O)[C@@H]3C[C@@H](c4nc(C(C)C)no4)C[C@@H]32)c(OC)n1 | inconclusive: 56.2 µM [inhibitor, partial curve, poor fit]
CC1=C[C@@H](CNC(=O)COc2ccccc2)[C@H](C(C)C)C[C@H]1Cc1nnc(-c2cncn2C)o1 | active: 50.1 µM
COCCN1C(=O)c2ccccc2C(C(=O)Nc2cc(C)ccn2)C12CCCCC2 (stereo unspecified) | inactive
CCc1ccc(C(=O)N2CCC(c3n[nH]c(=O)n3Cc3ccc(F)cc3)CC2)cc1 | inconclusive: 89.1 µM [inhibitor, single point]
C=CCOC(=O)C1=C(C)N=C2SC=C(CC(=O)N3CCCC3)N2C1c1ccc(OC)cc1OC (stereo unspecified) | inconclusive: 8.91 µM [inhibitor, full curve, poor fit]
Cc1cc(-c2cc3c(ccn3C(C)C)c(C(=O)NCc3c(C)cc(C)[nH]c3=O)n2)ccn1 | active: 44.7 µM
C[S+](=O)([O-])CCn1ncc2cc(OCC3CCN(Cc4ccccc4)CC3)ccc21 | inconclusive: 126 µM [inhibitor, single point]
O=C(Cc1ccccc1)N1CC(c2noc(COc3ccccc3)n2)C1 | inconclusive: 56.2 µM [inhibitor, partial curve, poor fit]
O=C(c1n[nH]c2ccccc12)N1CCC(c2nc(CCOCC3CCOCC3)no2)C1 (stereo unspecified) | inconclusive: 50.1 µM [inhibitor, partial curve, poor fit]
CN1C[C@@H]2CCCN3CCC[C@@H]([C@H]23)[C@H]1CCCC(=O)Nc1ccc2c(c1)OCCO2 | inconclusive: 89.1 µM [inhibitor, single point]
COCc1nc(-c2ccc(OC3CN(C(=O)c4ccc(OC)nc4)C3)cc2)no1 | inconclusive: 100 µM [inhibitor, single point]
COc1ccccc1-c1ccc(CN2CCCCC2C(=O)NCc2ccc(F)c(F)c2)cc1 (stereo unspecified) | inconclusive: 22.4 µM [inhibitor, full curve, poor fit]
CCNc1ncnc2sc3c(c12)CCN(Cc1cccnc1)C3 | inconclusive: 100 µM [inhibitor, single point]
CCc1nc2c(c(-c3ccc(O)cc3)n1)CCN(Cc1ccc(C(F)(F)F)cc1)CC2 | active: 44.7 µM
